Reference: PubChem BioAssay (NCATS)
Where “and” joins values, the source holds several entries; their conditions need not be identical. Identical values can stand only once. This is one part of the list. Further columns of the screen follow, without active or inactive calls. The list favours compounds with an active or inconclusive main result. The note in brackets gives the kind of curve behind each potency; many fits are weak.

Assay: qHTS Assay for Lipid Storage Modulators (AID 1519)
Settings: Drosophila S3 cells, BODIPY lipid droplet/cell ratio, laser cytometry, cells loaded with oleic acid
Summary of the method: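 Cells seeded at 5,000 per well were treated with compounds over a concentration series and loaded with oleic acid (400 uM, as added). Lipid droplet fluorescence (488 nm excitation, 500-530 nm channel) was read by laser-scanning cytometry and normalized to 20 uM Triacsin C.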

[1] = measured here: cell count channel max response
[2] = measured here: cell number channel AC50
[3] = measured here: lipid (BODIPY) channel AC50
[4] = measured here: lipid channel max response
Tags describe the fitted curve by direction and shape.

In the case of COC(=O)N1CCN(C(=O)Cc2ccc(Cl)c(Cl)c2)[C@H](CN2CCCC2)C1, the max response [1] is reported as 100%, the AC50 [2] is reported as 20 µM [rising, partial curve, poor fit] and the AC50 [3] is reported as 20 µM [rising, partial curve, poor fit]. The max response [4] was 128%.
In the case of COC1=C[C@H]2[C@H]3Cc4ccc(OC)c(O)c4[C@@]2(CCN3C)CC1=O, the max response [1] is reported as 42.6%, the AC50 [2] is reported as 39.8 µM [rising, single point] and the AC50 [3] is reported as 35.5 µM [rising, single point]. It also gave a max response [4] of 43.6%.
In the case of COc1ccc2cc1Oc1ccc(cc1)C[C@H]1c3cc(c(OC)cc3CCN1C)Oc1c(OC)c(OC)cc3c1[C@H](C2)N(C)CC3, the max response [1] is reported as 66.4%, the AC50 [2] is reported as 12.6 µM [rising, full curve] and the AC50 [3] is reported as 12.6 µM [rising, full curve]. For the same compound, the max response [4] was 75.6%.
For CN1C2CC(OC(=O)C(CO)c3ccccc3)CC1C1OC12 (stereo not drawn), the max response [1] was -3.98%, the AC50 [2] was 5.62 µM [falling, full curve, poor fit] and the AC50 [3] was 5.62 µM [falling, full curve, poor fit]. It also gave a max response [4] of -2.48%.
With CCCCCC[C@H]1C(=O)O[C@H](C)[C@H](NC(=O)c2cccc(NC=O)c2O)C(=O)O[C@@H](C)[C@H]1OC(=O)CC(C)C the max response [1] was -54.5%, the AC50 [2] was 0.224 µM [falling, full curve] and the AC50 [3] was 0.158 µM [falling, full curve]. The max response [4] was -104%.
For Cn1cc(C(=O)C(=O)N[C@H]2CN3CCC2CC3)c2ccccc21, the max response [1] was 30.2%, the AC50 [2] was 12.6 µM [rising, full curve, poor fit] and the AC50 [3] was 14.1 µM [rising, full curve, poor fit]. The max response [4] was 36.1%.
With O=C(O)c1ccccc1-c1c2cc(Br)c(=O)cc-2oc2[c]([Hg])c(O)c(Br)cc12 the max response [1] was -68.4% and -108%, the AC50 [2] was 14.1 µM [falling, partial curve, poor fit] and the AC50 [3] was 14.1 µM [falling, partial curve, poor fit]. The max response [4] was -88.5% and -108%.
With CC[C@]1(O)CC(O[C@@H]2CC(N(C)C)C(O)C(C)O2)c2c(cc3c(c2O)C(=O)c2c(O)cccc2C3=O)C1C(=O)OC (stereo partly drawn) the max response [1] was 32%, the AC50 [2] was 39.8 µM [rising, single point] and the AC50 [3] was 8.91 µM [falling, partial curve]. It also gave a max response [4] of -92.5%.
In the case of CCOC(=O)c1ncn2c1[C@H]1CCCN1C(=O)c1cc(OC)ccc1-2, the max response [1] is reported as 56.3%, the AC50 [2] is reported as 3.98 µM [rising, full curve] and the AC50 [3] is reported as 4.47 µM [rising, full curve]. The max response [4] was 68.7%.
With C=CCN1CCC23c4c5ccc(O)c4O[C@H]2C(=O)CC[C@@]3(O)C1C5 (stereo partly drawn) the max response [1] was 46.1%, the AC50 [2] was 15.8 µM [falling, single point] and the AC50 [3] was 15.8 µM [falling, single point]. The max response [4] was 47.3%.
For O=CN1CC2CC(C1)c1cccc(=O)n1C2 (stereo not drawn), the max response [1] was 51.1%, the AC50 [2] was 35.5 µM [rising, partial curve, poor fit] and the AC50 [3] was 28.2 µM [rising, partial curve, poor fit]. It also gave a max response [4] of 50%.
With COc1cc2ccc(=O)oc2c2ccoc12 the max response [1] was 39%, the AC50 [2] was 0.316 µM [rising, full curve, poor fit] and the AC50 [3] was 1 µM [rising, partial curve]. It also gave a max response [4] of 56.6%.
In the case of Oc1cc2c(cc1O)[C@H]1c3ccccc3CN[C@H]1CC2, the max response [1] is reported as 43.5%, the AC50 [2] is reported as 39.8 µM [rising, single point] and the AC50 [3] is reported as 39.8 µM [rising, single point]. The max response [4] was 56.7%.
In the case of CCC1/C=C/C=CCC(C)C(O)[C@@](C)(O)C(=O)C(C)C(O)C(C)C(=O)C(C)C(O)C(C)C=CC(=O)O[C@H]2C(C)C(CC1)O[C@]1(CCC(C)C(CC(C)O)O1)C2C (stereo partly drawn), the max response [1] is reported as -36.4%, the AC50 [2] is reported as 0.0112 µM [falling, full curve, poor fit] and the AC50 [3] is reported as 0.00794 µM [falling, full curve]. It also gave a max response [4] of -102%.
With C[C@]12[C@H](O)CC3C(CC[C@@H]4C[C@@H](O)CC[C@]34C)[C@@]1(O)CC[C@@H]2C1=CC(=O)OC1 (stereo partly drawn) the max response [1] was 12.8%, the AC50 [2] was 3.55 µM [rising, full curve, poor fit] and the AC50 [3] was 0.251 µM [rising, full curve, poor fit]. The max response [4] was 19%.
For CN1C[C@@H](CO)C=C2c3cccc4[nH]cc(c34)CC21 (stereo partly drawn), the max response [1] was 56.4%, the AC50 [2] was 7.94 µM [rising, full curve, poor fit] and the AC50 [3] was 10 µM [rising, partial curve]. It also gave a max response [4] of 82.9%.
With COc1cc2c(cc1OC)C1C(=O)c3c(cc4c(c3O)C=CC(C)(C)O4)OC1CO2 (stereo not drawn) the max response [1] was -33.9%, the AC50 [2] was 7.94 µM [falling, full curve, poor fit] and the AC50 [3] was 7.08 µM [falling, full curve]. The max response [4] was -86.8%.
With O=C1C=C2C=C[C@@H]3C[C@@]2(O1)[C@H]1CCCCN31 the max response [1] was 45.6%, the AC50 [2] was 35.5 µM [rising, partial curve, poor fit] and the AC50 [3] was 31.6 µM [rising, partial curve, poor fit]. It also gave a max response [4] of 53.1%.
In the case of CC(=O)NCCc1c[nH]c2ccccc12, the max response [1] is reported as 53.3% and -31.7%, the AC50 [2] is reported as 22.4 µM [rising, partial curve, poor fit] and 7.08 µM [falling, full curve, poor fit] and the AC50 [3] is reported as 17.8 µM [rising, partial curve, poor fit] and 6.31 µM [falling, full curve, poor fit]. The max response [4] was 60.9% and -32.2%.
In the case of NC[C@@H](CC(=O)O)c1ccc(Cl)cc1, the max response [1] is reported as 42.5%, the AC50 [2] is reported as 39.8 µM [rising, single point] and the AC50 [3] is reported as 39.8 µM [rising, single point]. It also gave a max response [4] of 51.8%.
For NCC(N)C(=O)c1ccccc1 (stereo not drawn), the max response [1] was 30.4%, the AC50 [2] was 35.5 µM [rising, single point] and the AC50 [3] was 31.6 µM [rising, single point]. For the same compound, the max response [4] was 41.6%.
In the case of CC(C)C[C@H]1C(=O)N2CCCC2[C@]2(O)O[C@](NC(=O)[C@@H]3C=C4c5cccc6[nH]cc(c56)CC4N(C)C3)(C(C)C)C(=O)N12 (stereo partly drawn), the max response [1] is reported as 83%, the AC50 [2] is reported as 7.94 µM [rising, full curve] and the AC50 [3] is reported as 8.91 µM [rising, full curve]. For the same compound, the max response [4] was 112%.
In the case of O=C(/C=C\c1ccc(Cl)cc1)N[C@@]12CCC(=O)[C@@H]3Oc4c(O)ccc5c4[C@@]31CCN(CC1CC1)[C@@H]2C5, the max response [1] is reported as 66%, the AC50 [2] is reported as 12.6 µM [rising, partial curve, poor fit] and the AC50 [3] is reported as 3.16 µM [rising, full curve, poor fit]. It also gave a max response [4] of 55.1%.
With CNC(=O)Oc1ccc2c(c1)[C@@]1(C)CCN(C)C1N2C (stereo partly drawn) the max response [1] was 36.7% and 14%, the AC50 [2] was 39.8 µM [rising, single point] and the AC50 [3] was 3.98 µM [rising, partial curve, poor fit]. For the same compound, the max response [4] was 50.9% and 31.3%.
With CC[C@@H]1CN2CCc3cc(OC)c(OC)cc3[C@@H]2C[C@@H]1C[C@H]1NCCc2cc(OC)c(OC)cc21 the max response [1] was 48.1%, the AC50 [2] was 0.562 µM [rising, full curve, poor fit] and the AC50 [3] was 0.447 µM [rising, full curve, poor fit]. The max response [4] was 11.5%.
With CN(C)C1C(=O)C(C(N)=O)=C(O)[C@@]2(O)C(=O)C3=C(O)c4c(O)cccc4[C@](C)(O)C3C(O)C12 (stereo partly drawn) the max response [1] was 32.7%, the AC50 [2] was 5.62 µM [rising, full curve] and the AC50 [3] was 10 µM [rising, partial curve]. It also gave a max response [4] of 59.3%.
In the case of CC(C)(O)[C@H]1O[C@@H]2CC[C@]3(C)[C@@]4(C)c5[nH]c6ccccc6c5C[C@@H]4CC[C@]3(O)C2=CC1=O, the max response [1] is reported as 67.3%, the AC50 [2] is reported as 6.31 µM [rising, partial curve, poor fit] and the AC50 [3] is reported as 5.62 µM [rising, partial curve]. It also gave a max response [4] of 90.4%.
With O=C(CCCN1CCC2(CC1)C(=O)N(Cc1cccc(F)c1)CN2c1ccccc1)c1ccc(F)cc1 the max response [1] was 29.5%, the AC50 [2] was 4.47 µM [rising, full curve, poor fit] and the AC50 [3] was 4.47 µM [rising, full curve, poor fit]. The max response [4] was -54.9%.
In the case of C#CCN1C(C)=C(C(=O)CCO)[C@@H](c2cccc(-n3oo3)c2)C(C(=O)OC)=C1C, the max response [1] is reported as 99.5%, the AC50 [2] is reported as 1 µM [rising, full curve] and the AC50 [3] is reported as 1.12 µM [rising, full curve]. It also gave a max response [4] of 150%.
With CC(C)=CCCC1(C)C=Cc2c(O)c3c(c(CC=C(C)C)c2O1)OC12C(=CC4CC1C(C)(C)OC2(C/C=C(/C)C(=O)O)C4O)C3=O (stereo not drawn) the max response [1] was -55.2%, the AC50 [2] was 39.8 µM [falling, single point] and the AC50 [3] was 25.1 µM [falling, partial curve]. For the same compound, the max response [4] was -100%.
For C=CCc1cc(OC)c2c(c1OC)OCO2, the max response [1] was 35.2%, the AC50 [2] was 11.2 µM [rising, partial curve] and the AC50 [3] was 5.62 µM [rising, partial curve]. The max response [4] was 49%.
In the case of CC[N+](CC)(CC)CCOc1cccc(OCC[N+](CC)(CC)CC)c1OCC[N+](CC)(CC)CC, the max response [1] is reported as 44.2%, the AC50 [2] is reported as 39.8 µM [rising, single point] and the AC50 [3] is reported as 39.8 µM [rising, single point]. For the same compound, the max response [4] was 46.4%.
